Out of some 94,000 compounds screened, about 6,200 (6.6%) were called active. The shares of active, inactive and inconclusive entries below differ from those in the screen. The call rests on the fitted dose curve; in most records, active means well fitted inhibition curve with a large enough effect; inconclusive means small, poorly fitted or top-dose-only effect; inactive means flat fitted curve, though single readings scatter. Where the call is inconclusive, the potency comes from a doubtful curve fit.
Experiment: Cytotoxic Profiling in HEK 293 Cell Line of Diverse Libraries Using Quantitative High-Throughput Screening; further: nearly all actives have a fitted effect of over 60% in size
Conditions: HEK 293 viability, ATP luminescence (CellTiter-Glo), 48-72 h; activity change, negative = cytotoxicity: at 115 µM (top of the series) unless noted; series mostly up to 115 µM
Procedure, shortened: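 HEK 293 cells seeded at 250 cells/well were exposed to compound for 48 or 72 hr at 37 degree Celsius. Viability taken as ATP content by CellTiter-Glo luminescence.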
On the % scale 0 is the no-effect control and ±100 the full control effect; potency means the concentration at half of the fitted maximal effect; tags describe the fitted curve by direction and shape.

SMILES	activity change, negative = cytotoxicity	Potency	outcome
COc1cccc(S(=O)(=O)NCC2Cn3cccc3C(=O)N2C)c1 (centres undefined)	inactive: -8.16%	–	–
CC(C)CC(=O)N1CCCC(c2noc(COc3ccccc3F)n2)C1 (centres undefined)	–	inconclusive: 56.2 µM [inhibitor, partial curve, poor fit]	–
COCCOC1CN(C2CCN(C(=O)c3nn(C)c4ccccc34)CC2)C12CCCCC2 (centres undefined)	–	inconclusive: 79.4 µM [inhibitor, partial curve]	–
O=C([C@H]1CCCN1C(=O)C1CCCC1)N1CCC(N2CCOC2=O)CC1	inactive: -4.33%	–	–
COCc1cccc(-c2ccc3c(n2)c(=O)ncn3Cc2ccccc2)c1	–	inconclusive: 35.5 µM [inhibitor, full curve, poor fit]	–
O=C(NCC1CCCCC1)C1CCc2nnc(C3CCN([S+](=O)([O-])c4ccccc4Cl)CC3)n21 (centres undefined)	–	inconclusive: 126 µM [inhibitor, single point]	–
Cc1ccc(-c2cccc(CN3CCCC(NC(=O)c4ccccc4Cl)C3)c2)cc1Cl (centres undefined)	–	inconclusive: 50.1 µM [inhibitor, partial curve, poor fit]	–
COc1ccccc1C(=O)N1CC(N(C)c2ccccc2C)C1	–	inconclusive: 56.2 µM [inhibitor, partial curve, poor fit]	–
Cc1cccc(-c2noc([C@@H]3Cc4nc[nH]c4CN3)n2)c1	inactive: -3.97% [at 230 µM]	–	–
COc1cc(F)ccc1-c1cc(-c2cn[nH]c2)c2cncn2c1	–	inconclusive: 22.4 µM [inhibitor, partial curve, poor fit]	–
CCC(=O)N1CCC(CC)(N2CCN(S(=O)(=O)c3cc(Cl)ccc3OC)CC2)C1 (centres undefined)	–	inconclusive: 50.1 µM [inhibitor, partial curve, poor fit]	–
CC(=O)NC[C@@H]1C=C(C)[C@H](Cc2nnc(-c3cncn3C)o2)C[C@H]1C(C)C	inactive: -8.53% [at 172 µM]	–	–
O=C(NC1CCCN(c2cc(-c3ccccc3)[nH]n2)C1)c1ccccc1Cl (centres undefined)	–	inconclusive: 56.2 µM [inhibitor, partial curve, poor fit]	–
C#CCNC(=O)[C@@H]1Cc2cn(CC#CC)c3cccc(c23)[C@H](CC(C)C)N1	–	inconclusive: 112 µM [inhibitor, partial curve, poor fit]	–
COCC1(c2nc(C3CCOCC3)nn2C(C)(C)C)CC1	inactive: -0.775%	–	–
CCN1c2cc(C(=O)NCc3nc4ccccc4n3C)ccc2C(=O)N2CCCCCC21 (centres undefined)	–	inconclusive: 56.2 µM [inhibitor, partial curve, poor fit]	–
CCC1=C(C(=O)OC)C(c2ccccc2Cl)N2C(CC(=O)NCC3CC3)=CSC2=N1 (centres undefined)	–	inconclusive: 50.1 µM [inhibitor, partial curve, poor fit]	–
COc1ccc2[nH]c3c(c2c1)CCNC31CCN(Cc2ccc(F)c(F)c2)CC1	–	inconclusive: 25.1 µM [inhibitor, full curve, poor fit]	–
COc1ccc(CC(=O)N2CNC(=O)C23CCN(C(=O)C2CCN(C)CC2)CC3)cc1	–	–	inactive
COc1ccc(-c2noc([C@@H]3CCCN3C3CCCCC3)n2)cn1	–	inconclusive: 79.4 µM [inhibitor, partial curve, poor fit]	–

SMILES	activity change, negative = cytotoxicity	Potency	outcome
CNC(=O)c1cc(C2CC2)nc2c1c(C1CCCN(C(=O)Nc3ccccc3)C1)nn2C (centres undefined)	–	inconclusive: 50.1 µM [inhibitor, partial curve, poor fit]	–
CCC1c2nccn2CCCN1C(=O)COc1ccc(Cl)cc1C (centres undefined)	–	inconclusive: 50.1 µM [inhibitor, partial curve, poor fit]	–
Cc1cn2nc(C(=O)N3CCN(c4cccc(Cl)c4)CC3)cc2c(N2CCCC2)n1	–	inconclusive: 31.6 µM [inhibitor, partial curve, poor fit]	–
CNC(=O)c1cc(C2CC2)nc2c1c(C1CCCN([S+](=O)([O-])c3ccc(C)cc3)C1)nn2C (centres undefined)	–	inconclusive: 56.2 µM [inhibitor, partial curve, poor fit]	–
CCOC(=O)C1CCCN(C(=O)c2cc(-c3ccc(Cl)cc3Cl)c3nncn3n2)C1 (centres undefined)	–	inconclusive: 50.1 µM [inhibitor, partial curve, poor fit]	–
COc1ccccc1-c1nccc2c(=O)cc(N3CCOCC3)oc12	–	inconclusive: 70.8 µM [inhibitor, partial curve]	–
O=C(O)CCC(=O)N1Cc2[nH]cnc2C[C@H]1C(=O)NC1CCCCC1	–	–	inactive [at 172 µM]
CCCCn1c(=O)c(C(=O)N2CCC(C#N)CC2)nc2cccnc21	inactive: -9.85% [at 172 µM]	–	–
CCC[C@@H]1CN(Cc2cc(OC)c(SC)cc2OC)C[C@H]1NC(C)=O	–	inconclusive: 31.6 µM [inhibitor, partial curve, poor fit]	–
CC1CCN([C@@H]2[C@H](O)[C@H](CO)O[C@@H]2CNC(=O)c2cccs2)CC1	inactive: 0.923% [at 172 µM]	–	–
COc1ccc(Cl)cc1-c1ccc2c(c1)C(=O)N1CCN(C(=O)CC(C)(C)C)C[C@@H]1C(=O)N2	–	inconclusive: 79.4 µM [inhibitor, partial curve]	–
COc1cccc(C(=O)N2CCCN(c3cc(-c4ccc(C)c(C)c4)[nH]n3)CC2)c1OC	–	active: 39.8 µM	–
CN(C)c1ccc(-c2cc(-c3ccc(=O)[nH]c3)c3cncn3c2)cc1	inactive: -17.1% [at 172 µM]	–	–
COc1ccc(CN2C(=O)[C@@H]3C[C@@H](CN3Cc3ccccc3C)Oc3ccccc32)cc1	–	active: 70.8 µM	–
CN1CCOc2c(C(=O)NCc3cccnc3)cc(-c3ccc(O)c(F)c3)cc21	–	inconclusive: 100 µM [inhibitor, partial curve, poor fit]	–
COc1ccccc1Nc1ccnc(N2CCC(C(=O)NCc3ccccc3)CC2)n1	–	inconclusive: 50.1 µM [inhibitor, partial curve, poor fit]	–
Cn1ncc2c(C(=O)NCc3cccnc3)cc(-c3cccnc3)nc21	–	inconclusive: 44.7 µM [inhibitor, partial curve]	–
O=C(NC1CCN(c2nccc(Nc3ccccc3F)n2)CC1)C1CCCC1	–	inconclusive: 35.5 µM [inhibitor, partial curve]	–
CCOC(=O)[C@@H]1CN([S+](=O)([O-])Cc2ccccc2)[C@H]2c3ccc(OC)cc3O[C@@H]12	–	inconclusive: 89.1 µM [inhibitor, single point]	–

— PubChem BioAssay AID1345083 (National Center for Advancing Translational Sciences (NCATS), 2018)
